This is an account of results in publication PMC9911399, “Two distinct binding modes provide the RNA-binding protein RbFox with extraordinary sequence specificity”.

Residue numbers refer to the chain shown, from its start. The list shows a part of the results.

Sequences and labels used below:
T1: RBFOX1 RRM (Homo sapiens, UniProt Q9NWB1 109-208)
T1 sequence: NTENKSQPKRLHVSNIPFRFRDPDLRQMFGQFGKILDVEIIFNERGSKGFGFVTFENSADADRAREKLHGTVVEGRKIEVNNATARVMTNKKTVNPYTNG

B1: GCCACAA (DNA:RNA)
RNA: GGGAGACCGGAAUUCAGAUUGUCCGCCACAAUUAAAUCCCGUCGUAGCCACCA
DNA 1: CAATCTGAATTCCGGTCTCCC
DNA 2: TGGTGGCTACGACGGGATT
B2: GUGGUUC (DNA:RNA)
RNA: B1 RNA with C26U, C27G, A28G, C29U, A30U, A31C
DNA 1: CAATCTGAATTCCGGTCTCCC
DNA 2: TGGTGGCTACGACGGGATT
B3: ACUCGGC (DNA:RNA)
RNA: B1 RNA with G25A, C27U, A28C, C29G, A30G, A31C
DNA 1: CAATCTGAATTCCGGTCTCCC
DNA 2: TGGTGGCTACGACGGGATT
B4: UAUACGA (DNA:RNA)
RNA: B1 RNA with G25U, C26A, C27U, A30G
DNA 1: CAATCTGAATTCCGGTCTCCC
DNA 2: TGGTGGCTACGACGGGATT
B5: UUACUCA (DNA:RNA)
RNA: B1 RNA with G25U, C26U, C27A, A28C, C29U, A30C
DNA 1: CAATCTGAATTCCGGTCTCCC
DNA 2: TGGTGGCTACGACGGGATT
B6: ACCUAAA (DNA:RNA)
RNA: B1 RNA with G25A, A28U, C29A
DNA 1: CAATCTGAATTCCGGTCTCCC
DNA 2: TGGTGGCTACGACGGGATT
B7: UAUUCAC (DNA:RNA)
RNA: B1 RNA with G25U, C26A, C27U, A28U, A31C
DNA 1: CAATCTGAATTCCGGTCTCCC
DNA 2: TGGTGGCTACGACGGGATT
B8: GGAGUGC (DNA:RNA)
RNA: B1 RNA with C26G, C27A, A28G, C29U, A30G, A31C
DNA 1: CAATCTGAATTCCGGTCTCCC
DNA 2: TGGTGGCTACGACGGGATT
B9: AGGCUCG (DNA:RNA)
RNA: GGGAGACCGGAAUUCAGAUUGUCCAGGCUCGUUAAAUCCCGUCGUAGCCACCA
DNA 1: CAATCTGAATTCCGGTCTCCC
DNA 2: TGGTGGCTACGACGGGATT
B10: GACCUCA (DNA:RNA)
RNA: B9 RNA with A25G, G26A, G27C, G31A
DNA 1: CAATCTGAATTCCGGTCTCCC
DNA 2: TGGTGGCTACGACGGGATT
B11: UCGCGCA (DNA:RNA)
RNA: B9 RNA with A25U, G26C, U29G, G31A
DNA 1: CAATCTGAATTCCGGTCTCCC
DNA 2: TGGTGGCTACGACGGGATT
B12: AUUCUGC (DNA:RNA)
RNA: B9 RNA with G26U, G27U, C30G, G31C
DNA 1: CAATCTGAATTCCGGTCTCCC
DNA 2: TGGTGGCTACGACGGGATT
B13: AGUAUUG (DNA:RNA)
RNA: B9 RNA with G27U, C28A, C30U
DNA 1: CAATCTGAATTCCGGTCTCCC
DNA 2: TGGTGGCTACGACGGGATT
B14: AAGUCUC (DNA:RNA)
RNA: B9 RNA with G26A, C28U, U29C, C30U, G31C
DNA 1: CAATCTGAATTCCGGTCTCCC
DNA 2: TGGTGGCTACGACGGGATT
B15: GACUUUU (DNA:RNA)
RNA: B1 RNA with C26A, A28U, C29U, A30U, A31U
DNA 1: CAATCTGAATTCCGGTCTCCC
DNA 2: TGGTGGCTACGACGGGATT
B16: GAGAUGU (DNA:RNA)
RNA: B9 RNA with A25G, G26A, C28A, C30G, G31U
DNA 1: CAATCTGAATTCCGGTCTCCC
DNA 2: TGGTGGCTACGACGGGATT
B17: AUGACAU (DNA:RNA)
RNA: B1 RNA with G25A, C26U, C27G, A31U
DNA 1: CAATCTGAATTCCGGTCTCCC
DNA 2: TGGTGGCTACGACGGGATT
B18: GUCAACG (DNA:RNA)
RNA: B1 RNA with C26U, C29A, A30C, A31G
DNA 1: CAATCTGAATTCCGGTCTCCC
DNA 2: TGGTGGCTACGACGGGATT
B19: CUAGUCA (DNA:RNA)
RNA: B9 RNA with A25C, G26U, G27A, C28G, G31A
DNA 1: CAATCTGAATTCCGGTCTCCC
DNA 2: TGGTGGCTACGACGGGATT
B20: AACAGCG (DNA:RNA)
RNA: B9 RNA with G26A, G27C, C28A, U29G
DNA 1: CAATCTGAATTCCGGTCTCCC
DNA 2: TGGTGGCTACGACGGGATT

This test has as its target T1, RBFOX1 RRM. Description: EMSA; HiTS-Eq, 1 nM pool, 10 min; buffer printed only for the single-RNA assays: 10 mM Tris pH 7.5, 150 mM NaCl, 3.4 mM EDTA, 0.001% NP-40, 30 C. The following applies: tags: His6 N-terminal (pET28a); label: 5' 32P. The method, boiled down: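 Purified wild-type or mutant RbFox RRM at increasing concentrations was equilibrated with 1 nM of 5′-radiolabelled RNA carrying 7 randomized nucleotides for 10 min in 50 µL. Unbound RNA was separated by 8% native PAGE and sequenced. Relative association constants came from read-count changes of each RNA species compared with the control reaction, normalised to the cognate motif.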
(In EMSA bound probe runs differently from free probe, usually more slowly.)
Regarding B1, the binding signal is 0.00584 KA relative to UGCAUGU.

Regarding B2, the binding signal is 0.0228 KA relative to UGCAUGU.

As for B3, the binding signal is 0.00633 KA relative to UGCAUGU.

Take B4: the binding signal is 0.0111 KA relative to UGCAUGU.

With B5, the binding signal is 0.000229 KA relative to UGCAUGU.

For the molecule B6, the binding signal was 0.000173 KA relative to UGCAUGU.

In the case of B7, the binding signal was 0.00768 KA relative to UGCAUGU.

Turning to B8, the binding signal is 0.0264 KA relative to UGCAUGU.

In the case of B9, the binding signal was 0.0238 KA relative to UGCAUGU.

With B10, the binding signal is 0.00254 KA relative to UGCAUGU.

For the molecule B11, the binding signal was 0.0159 KA relative to UGCAUGU.

In the case of B12, the binding signal is 0.0126 KA relative to UGCAUGU.

As to B13, the binding signal is 0.0121 KA relative to UGCAUGU.

Consider B14, for which the binding signal is 0.00986 KA relative to UGCAUGU.

On to B15, for which the binding signal was 0.0132 KA relative to UGCAUGU.

On to B16, for which the binding signal is 0.0134 KA relative to UGCAUGU.

On to B17, for which the binding signal is 0.00405 KA relative to UGCAUGU.

For the molecule B18, the binding signal is 0.00876 KA relative to UGCAUGU.

Take B19: the binding signal was 0.00769 KA relative to UGCAUGU.

Take B20: the binding signal is 0.00422 KA relative to UGCAUGU.
